Results taken from the supplement of paper PMC6135742.
Where “and” joins values, the source holds several entries; their conditions need not be identical. Equal entries are not always repeated. Structures can show the parent of a compound that is named as a salt. ± gives the standard deviation of the averaged measurements. Over roughly 2,600 compounds, “total cell number (DAPI+ nuclei) relative to DMSO vehicle control” has its median near -1.4; the lowest 2% begin near -23. The list shows a part of the results.

tested on: jimpy (Plp1 jimpy) mouse iPSC-derived oligodendrocyte progenitor cells; assay: total cell number (DAPI+ nuclei) relative to DMSO vehicle control (SDs above negative control mean); higher = more surviving cells; conditions: 10 µM; 3 days

Structure (SMILES)	total cell number
Cn1cc(CNCC2CCN(c3ncc(C(=O)NO)cn3)CC2)c2ccccc21	-20.1
CC(=O)[C@H]1CC[C@H]2[C@@H]3CCC4=CC(=O)CC[C@]4(C)[C@H]3CC[C@]12C [Progesterone]	5.32 ± 2.5
CN(C)CC/C=C1/c2ccccc2Sc2ccc(Cl)cc21 [Chlorprothixene hydrochloride]	-8.65
CN(C)CC/C=C1/c2ccccc2Sc2ccc(Cl)cc21 [Chlorprothixene]	-10.6
OC(CN1CCC(Cc2ccc(F)cc2)CC1)c1ccc(Cl)cc1 (stereo not drawn) [Eliprodil]	2.32
CN(C)CCOC(c1ccccc1)c1ccccc1 [Diphenhydramine hydrochloride]	-1.87
CN(C)CCOC(c1ccccc1)c1ccccc1 [Diphenhydramine HCl]	-0.509
CCOC(=O)CCNc1cc(N2CCc3ccccc3CC2)nc(-c2ccccn2)n1	-13.2
CCNC(=O)c1[nH]nc(-c2cc(Cl)c(O)cc2O)c1-c1ccc(OC)cc1	-16.1
C[C@H](NC(=O)/C(C#N)=C/c1cccc(Br)n1)c1ccccc1	-9.95
CC(C)c1ccc(NC(=O)Cn2cnc3c2c(=O)n(C)c(=O)n3C)cc1	-0.803
C[C@]12CC[C@@H]3c4ccc(O)cc4CC[C@H]3[C@@H]1CC[C@@H]2O [beta-Estradiol]	-1.83
C[C@]12CC[C@@H]3c4ccc(O)cc4CC[C@H]3[C@@H]1CC[C@@H]2O [Estradiol]	-1.54
O=c1[nH]c(=S)[nH]c(-c2ccccc2)c1Cc1c(O)ccc2ccccc12 [Cambinol]	-0.967
CCNC(=O)Nc1ccc(-c2nc3c(c(N4CCOC[C@@H]4C)n2)CCN(C2COC2)C3)cc1	-8.88
CCCN(CCC)S(=O)(=O)c1ccc(C(=O)O)cc1 [Probenecid]	1.16
Nc1ncnc2c1ncn2[C@@H]1O[C@H](CO)[C@@H](O)[C@H]1O [Adenosine]	-1.28 ± 0.88
O=C(c1ccc(Nc2nccc(-c3cc4ccccc4s3)n2)cc1)N1CCC(N2CCCC2)CC1 [IKK-16 (IKK Inhibitor VII)]	-12.3
Clc1ccc(CSC(Cn2ccnc2)c2ccc(Cl)cc2Cl)cc1 (stereo not drawn) [Sulconazole Nitrate]	-0.639
Cc1cc(C)c(Nc2ccnc(Nc3ccc(C#N)cc3)n2)c(C)c1 [Dapivirine (TMC120)]	-7.9
C[n+]1cc2c3c(ccc2c2ccc4cc5c(cc4c21)OCO5)OCO3 [Sanguinarine chloride]	-10.9
CO[C@H]1C[C@@H]2CC[C@@H](C)[C@@](O)(O2)C(=O)C(=O)N2CCCC[C@H]2C(=O)O[C@H]([C@H](C)C[C@@H]2CC[C@@H](OCCO)[C@H](OC)C2)CC(=O)[C@H](C)/C=C(\C)[C@@H](O)[C@@H](OC)C(=O)[C@H](C)C[C@H](C)/C=C/C=C/C=C/1C [Everolimus (RAD001)]	-2.07
C=CC1=C(C)c2cc3[nH]c(cc4nc(cc5[nH]c(cc1n2)c(C)c5CCC(=O)O)C(CCC(=O)O)=C4C)c(C)c3C=C [Protoporphyrin IX disodium]	-4.32
CC1CNc2c(cccc2S(=O)(=O)N[C@@H](CCCNC(=N)N)C(=O)N2CC[C@@H](C)C[C@@H]2C(=O)O)C1 (stereo partly drawn) [Argatroban monohydrate]	-0.843
CC1CNc2c(cccc2S(=O)(=O)N[C@@H](CCCNC(=N)N)C(=O)N2CC[C@@H](C)C[C@@H]2C(=O)O)C1 (stereo partly drawn) [Argatroban]	-0.795
CN(C)CCN(Cc1ccccc1)c1ccccn1 [Tripelennamine HCl]	-0.852

Structure (SMILES)	total cell number
COc1ccccc1N1CCN(CCN(C(=O)C2CCCCC2)c2ccccn2)CC1	-1.8 and -2.44
Nc1ccn([C@@H]2O[C@H](CO)[C@@H](O)C2(F)F)c(=O)n1 [Gemcitabine hydrochloride]	-2.62
Nc1ccn([C@@H]2O[C@H](CO)[C@@H](O)C2(F)F)c(=O)n1 [Gemcitabine]	-3.97
CC(=O)O[C@@]12CO[C@@H]1C[C@H](O)[C@@]1(C)C(=O)[C@H](O)C3=C(C)[C@@H](OC(=O)[C@H](O)[C@@H](NC(=O)OC(C)(C)C)c4ccccc4)C[C@@](O)([C@@H](OC(=O)c4ccccc4)[C@H]21)C3(C)C [Docetaxel]	-10.6
O=C(/C=C/c1ccccc1)NC(NC(=S)Nc1cccc2cccnc12)C(Cl)(Cl)Cl (stereo not drawn) [Salubrinal]	2.35
Nc1cccc2c1C(=O)N(C1CCC(=O)NC1=O)C2=O (stereo not drawn) [Pomalidomide]	-0.938
C=C1C[C@@]23CC[C@H]4[C@@](C)(CCC[C@@]4(C)C(=O)O)[C@@H]2CC[C@]1(O)C3 [Steviol]	-0.619
Oc1ccc(OC2CCCCO2)cc1 (stereo not drawn) [Deoxyarbutin]	-3.34
O=C(O)C(O)Cc1ccc(O)c(O)c1 (stereo not drawn) [Danshensu sodium salt]	-1.47
O=C(O)C(O)Cc1ccc(O)c(O)c1 (stereo not drawn) [Sodium Danshensu]	-1.54
CC1(C)CCC(C)(C)c2cc(NC(=O)c3ccc(C(=O)O)cc3)ccc21 [Tamibarotene]	-9.8
N[C@@H](Cc1cc(I)c(Oc2cc(I)c(O)c(I)c2)c(I)c1)C(=O)O [L-Thyroxine]	-0.837
CN1C[C@H](O)[C@@H](O)[C@H](O)[C@H]1CO [N-Methyl-1-deoxynojirimycin]	-0.745
O=C1Nc2ccccc2/C1=C1/Nc2ccccc2C1=O [Indirubin]	-1.42
CCCCc1nc2cc(/C=C/C(=O)NO)ccc2n1CCN(CC)CC [Pracinostat (SB939)]	-12.2
O=C(O)/C=C/c1ccc(O)c(O)c1 [Caffeic Acid]	-0.651 ± 0.44
CC1(C)CC(=O)c2c(C(F)(F)F)nn(-c3ccc(C(N)=O)c(N[C@H]4CC[C@H](O)CC4)c3)c2C1	-12.1
COc1cc2nc(N(C)CCCNC(=O)C3CCCO3)nc(N)c2cc1OC (stereo not drawn) [Alfuzosin HCl]	4.62
COc1cc2nc(N(C)CCCNC(=O)C3CCCO3)nc(N)c2cc1OC (stereo not drawn) [Alfuzosin hydrochloride]	-2.22
Clc1ccc(Cn2c(CN3CCCC3)nc3ccccc32)cc1 [Clemizole hydrochloride]	-0.144
N#CSc1cc(SC#N)c(N)nc1N	-14.3
CC(C)n1nc(-c2ccc3oc(N)nc3c2)c2c(N)ncnc21	-6.55
N[C@@H](Cc1c[nH]c2ccc(O)cc12)C(=O)O [5-hydroxytryptophan (5-HTP)]	-0.837
N[C@@H](Cc1c[nH]c2ccc(O)cc12)C(=O)O [5-Hydroxy-L-tryptophan]	-2.54
OCC1OC(n2cnc3c(NC4CCCCC4)ncnc32)C(O)C1O (stereo not drawn) [N6-Cyclohexyladenosine]	-1.69
CC(=O)Nc1nc2c(Oc3cc(-c4ccc(C(F)(F)F)cc4)ncn3)cccc2s1	0.904

Structure (SMILES)	total cell number
N=C(N)Nc1ccc(C(=O)Oc2ccc3cc(C(=N)N)ccc3c2)cc1 [Nafamostat Mesylate]	-6.65
C=CC(=O)Nc1cccc(Nc2nc(Nc3ccc(Oc4ccnc(C(=O)NC)c4)cc3)ncc2F)c1	-15
CCCSc1nc(N[C@@H]2C[C@H]2c2ccc(F)c(F)c2)c2nnn([C@@H]3C[C@H](OCCO)[C@@H](O)[C@H]3O)c2n1 [Ticagrelor]	-6.46
N[C@@H]1CONC1=O [D-Cycloserine]	-0.337
Cn1cc(-c2cnn3c(N)c(Br)c([C@@H]4CCCNC4)nc23)cn1	-8.88
O=C(O)COCCN1CCN(C(c2ccccc2)c2ccc(Cl)cc2)CC1 (stereo not drawn) [Cetirizine DiHCl]	-4.38
O=C(O)COCCN1CCN(C(c2ccccc2)c2ccc(Cl)cc2)CC1 (stereo not drawn) [Cetirizine dihydrochloride]	-0.906
C=C1C[C@@]2(O)O[C@@]3(C[C@H]2C(C)C)[C@@H](C)CC[C@@H]13 [Curcumol]	-0.28
CCCc1c2oc(C(=O)O)cc(=O)c2cc2c(=O)cc(C(=O)O)n(CC)c12 [Nedocromil]	-1.4
N[C@H]1C[C@@H]1c1ccc(-c2cccc(O)c2)cc1	-3.31
COc1ccc(-c2ccc3ncc4c(c3c2)n(-c2ccc(N3CCNCC3)c(C(F)(F)F)c2)c(=O)n4C)cn1	-12.5
CC(=O)O[C@]1(C(C)=O)CC[C@H]2[C@@H]3C=C(Cl)C4=CC(=O)[C@@H]5C[C@@H]5[C@]4(C)[C@H]3CC[C@@]21C [Cyproterone Acetate]	6.81
CC(=O)O[C@]1(C(C)=O)CC[C@H]2[C@@H]3C=C(Cl)C4=CC(=O)[C@@H]5C[C@@H]5[C@]4(C)[C@H]3CC[C@@]21C [Cyproterone acetate]	-0.554
CC(C)c1cc(-c2n[nH]c(=O)n2-c2ccc3c(ccn3C)c2)c(O)cc1O [Ganetespib (STA-9090)]	-25.4
CC1(C)[C@H](C(=O)O)N2C(=O)C[C@H]2S1(=O)=O [Sulbactam]	-0.259
CC1(C)[C@H](C(=O)O)N2C(=O)C[C@H]2S1(=O)=O [Sulbactam sodium]	1.1
Nc1ccc(N2C(=O)c3ccccc3C2=O)c(Cl)c1 [N-(4-Amino-2-chlorophenyl)phthalimide]	0.385
CN1CCc2cc(Cl)c(O)cc2[C@@H](c2ccccc2)C1	-0.705
Cc1ncc(CO)c(CO)c1O [Pyridoxine HCl]	0.837
C#Cc1cccc(Nc2ncnc3cc4c(cc23)OCCOCCOCCO4)c1 [Icotinib]	-6.11
Cc1ccc(NCCCc2ccccc2)c(N)c1	-11.8
CCc1c(C)[nH]c2c1C(=O)C(CN1CCOCC1)CC2 (stereo not drawn) [Molindone hydrochloride]	-1.59
c1ccc(-c2[nH]ncc2-c2ccnc3ccccc23)nc1	-2.66
CC1=C(C(=O)O)N2C(=O)[C@@H](NC(=O)[C@H](N)C3=CCC=CC3)[C@H]2SC1 [Cephradine]	-1.61
CC1=C(/C=C/C(C)=C/C=C/C(C)=C/C(=O)O)C(C)(C)CCC1 [Tretinoin]	-1.01
CC1=C(/C=C/C(C)=C/C=C/C(C)=C/C(=O)O)C(C)(C)CCC1 [Retinoic acid]	-0.79
